Some of the results follow. These are enrichments in a pooled selection; single values are uncertain. Scores sum up all selected molecules that hold the word; the word was not tested alone.
How the values were obtained:
Test in all cases: 6-mer SELEX enrichment z-score vs GST control; IMP3 is the RNA-binding protein IGF2BP3; higher = more enriched by binding
[1] = tested on: IMP3 KH1-4; settings: construct: KH1-4 (164-579); SELEX round: R4
Experimental: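 SELEX-seq with GST-tagged IMP3 KH1-4 (Pro164-Lys579) and an N40 RNA pool, round 4. 6-mer z-score of sequence-tag enrichment normalised to the corresponding GST SELEX round; RNA k-mers written as DNA (T for U).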

[2] = tested on: IMP3 RRM1-2; settings: construct: RRM1-2 (1-163); SELEX round: R2
Experimental: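 SELEX-seq with GST-tagged IMP3 RRM1-2 (Met1-Asn163) and an N40 RNA pool, round 2. 6-mer enrichment z-score normalised to GST SELEX. RNA written as DNA (T = U).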

[3] = biological target: IMP3 full-length (UniProt O00425); settings: construct: FL IMP3 (1-579); SELEX round: R4
Experimental: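 SELEX-seq with GST-tagged full-length IMP3 and an N40 RNA pool, round 4. Each 6-mer is scored as an enrichment z-score of sequence tags containing it, normalised to the matching GST SELEX round. RNA written as DNA (T = U).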

[4] = tested on: IMP3 KH1-2; settings: construct: KH1-2 (164-376); SELEX round: R4
Experimental: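 SELEX-seq with GST-tagged IMP3 KH1-2 (Pro164-Phe376) and an N40 RNA pool, round 4 (stringent 300/600 mM KCl washes). 6-mer z-score of sequence-tag enrichment normalised to the corresponding GST SELEX round; RNA k-mers written as DNA (T for U).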

[5] = tested on: IMP3 KH3-4; settings: construct: KH3-4 (377-579); SELEX round: R4
Experimental: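 SELEX-seq with GST-tagged IMP3 KH3-4 (Pro377-Lys579) and an N40 RNA pool, round 4. 6-mer z-score of sequence-tag enrichment normalised to the corresponding GST SELEX round; RNA k-mers written as DNA (T for U).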

Sequence of UniProt O00425 (O00425 whole entry): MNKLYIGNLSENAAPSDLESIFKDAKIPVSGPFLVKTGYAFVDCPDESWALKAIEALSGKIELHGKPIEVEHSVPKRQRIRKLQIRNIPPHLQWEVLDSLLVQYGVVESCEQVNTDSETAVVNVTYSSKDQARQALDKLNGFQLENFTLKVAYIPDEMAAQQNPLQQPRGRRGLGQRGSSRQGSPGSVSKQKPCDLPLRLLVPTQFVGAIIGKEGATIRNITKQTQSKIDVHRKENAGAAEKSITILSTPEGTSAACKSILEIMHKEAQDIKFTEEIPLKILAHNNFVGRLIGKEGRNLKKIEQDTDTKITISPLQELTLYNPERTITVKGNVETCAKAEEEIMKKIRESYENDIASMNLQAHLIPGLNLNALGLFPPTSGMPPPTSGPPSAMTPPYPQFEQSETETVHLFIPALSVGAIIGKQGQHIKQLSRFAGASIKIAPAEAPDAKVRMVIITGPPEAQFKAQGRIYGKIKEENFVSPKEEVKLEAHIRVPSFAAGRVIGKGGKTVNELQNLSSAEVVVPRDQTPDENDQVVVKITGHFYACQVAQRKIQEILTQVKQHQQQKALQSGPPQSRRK
Sequence of IMP3 KH1-4 (chain, as listed by the source): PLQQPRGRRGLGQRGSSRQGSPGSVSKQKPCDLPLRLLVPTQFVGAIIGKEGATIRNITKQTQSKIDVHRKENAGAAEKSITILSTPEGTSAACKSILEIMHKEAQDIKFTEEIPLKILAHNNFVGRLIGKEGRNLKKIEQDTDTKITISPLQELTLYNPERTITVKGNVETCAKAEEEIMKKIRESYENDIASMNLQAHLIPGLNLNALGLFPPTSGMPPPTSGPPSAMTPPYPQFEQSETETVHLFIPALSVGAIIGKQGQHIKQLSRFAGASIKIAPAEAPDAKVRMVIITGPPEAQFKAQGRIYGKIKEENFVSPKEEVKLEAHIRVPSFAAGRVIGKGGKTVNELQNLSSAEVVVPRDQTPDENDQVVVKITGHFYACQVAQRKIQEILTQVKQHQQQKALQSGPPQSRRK
Sequence of IMP3 KH1-2 (chain, as listed by the source): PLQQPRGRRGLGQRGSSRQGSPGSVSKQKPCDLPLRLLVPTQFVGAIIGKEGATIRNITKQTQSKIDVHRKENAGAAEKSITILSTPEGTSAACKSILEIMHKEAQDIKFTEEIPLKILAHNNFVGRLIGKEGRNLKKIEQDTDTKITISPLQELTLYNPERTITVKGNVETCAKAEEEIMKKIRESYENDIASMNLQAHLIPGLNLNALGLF
Sequence of IMP3 KH3-4 (chain, as listed by the source): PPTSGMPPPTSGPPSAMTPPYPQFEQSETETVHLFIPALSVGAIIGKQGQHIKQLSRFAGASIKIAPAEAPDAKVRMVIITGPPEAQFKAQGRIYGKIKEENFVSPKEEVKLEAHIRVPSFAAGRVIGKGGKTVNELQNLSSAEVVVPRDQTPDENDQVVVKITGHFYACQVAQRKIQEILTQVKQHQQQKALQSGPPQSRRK
Sequence of IMP3 RRM1-2 (chain, as listed by the source): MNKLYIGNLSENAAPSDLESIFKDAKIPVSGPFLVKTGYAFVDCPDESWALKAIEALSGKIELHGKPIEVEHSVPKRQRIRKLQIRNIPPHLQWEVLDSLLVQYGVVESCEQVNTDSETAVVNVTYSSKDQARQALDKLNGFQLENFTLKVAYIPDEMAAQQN

Row | Sequence | 6-mer SELEX enrichment z-score [1] | 6-mer SELEX enrichment z-score [2] | 6-mer SELEX enrichment z-score [3] | 6-mer SELEX enrichment z-score [4] | 6-mer SELEX enrichment z-score [5]
1 | GTGGCC | 0.111 | -0.155 | 0.253 | 0.1 | -0.144
2 | TGACTT | 0.082 | 0.002 | -0.454 | 0.026 | 0.168
3 | CGCTAG | -0.444 | 0.017 | -0.232 | -0.34 | -0.363
4 | CCAGAA | -0.604 | -1.03 | -0.924 | -0.694 | -0.781
5 | GCTTTC | 0.259 | 0.375 | 0.305 | 0.361 | 0.284
6 | TGGTGC | -0.331 | 0.357 | 0.007 | -0.26 | -0.246
7 | GTGTTG | -0.273 | 0.359 | -0.2 | -0.211 | -0.074
8 | ATACCC | -1.36 | -0.57 | -1.18 | -1.34 | -1.87
9 | CCCCTT | 0.296 | -0.32 | -0.456 | 0.32 | -0.295
10 | TTTGTC | 0.224 | 0.402 | 0.067 | 0.147 | 0.286
11 | AAACTC | -1.27 | -0.466 | -1.42 | -1.02 | -1.53
12 | ACAGCA | 0.992 | 1.81 | 2.27 | 1.1 | 0.354
13 | AGTTAA | -0.302 | -0.372 | -0.582 | -0.332 | 0.042
14 | CAACAA | 0.067 | 1.77 | 1.14 | 0.681 | -0.058
15 | GGACAT | 0.995 | 0.065 | 0.773 | 0.633 | 0.758
16 | CTTGGG | -0.606 | 0.462 | -0.067 | -0.413 | -0.328
17 | TAGTAA | 0.013 | -0.216 | -0.373 | -0.062 | 0.305
18 | GCGGAC | -0.728 | -0.313 | 0.172 | -0.616 | -0.684
19 | TCTCTC | 0.498 | 0.59 | 0.313 | 0.464 | 0.212
20 | CGCGAT | -0.308 | -0.309 | -0.037 | -0.287 | -0.283
21 | TGTCGC | 0.049 | 0.299 | 0.135 | 0.006 | -0.065
22 | TAGAAC | -0.016 | -0.632 | -0.55 | -0.125 | 0.188
23 | AGCCAT | 0.14 | 0.119 | 0.389 | 0.068 | -0.088
24 | ATATCT | 0.594 | 0.256 | 0.241 | 0.607 | 0.584
25 | TCTAGA | -0.157 | -0.11 | -0.296 | -0.189 | 0.003
26 | GGTGAC | -0.261 | -0.237 | 0.09 | -0.213 | -0.195
27 | GTTGCT | -0.057 | 0.4 | -0.048 | -0.024 | 0.04
28 | ACGCAT | 0.524 | 0.722 | 0.762 | 0.28 | 0.023

Row | Sequence | 6-mer SELEX enrichment z-score [1] | 6-mer SELEX enrichment z-score [2] | 6-mer SELEX enrichment z-score [3] | 6-mer SELEX enrichment z-score [4] | 6-mer SELEX enrichment z-score [5]
29 | TGCTCA | -0.147 | 0.374 | 0.092 | -0.119 | -0.257
30 | TCGAGC | -1.09 | 0.567 | 0.369 | -0.923 | -0.755
31 | CCAAAC | -2.51 | -0.74 | -2.04 | -2.35 | -3.19
32 | CCCGTG | -0.77 | -0.582 | -0.547 | -0.683 | -1.04
33 | CCCAAG | -2.08 | -1.24 | -1.7 | -2.01 | -2.26
34 | GATCCT | -0.177 | -0.186 | -0.519 | -0.26 | -0.339
35 | GCTTGA | -0.564 | -0.152 | -0.367 | -0.49 | -0.317
36 | TCATTG | 0.442 | 0.935 | 0.896 | 0.294 | 0.379
37 | ATACTC | -0.592 | 0.01 | -0.458 | -0.435 | -0.589
38 | ACGGGA | 0.186 | -0.802 | 0.059 | 0.155 | 0.141
39 | TGAAAC | -0.306 | -1.31 | -1.07 | -0.279 | 0.038
40 | ACGACA | 0.258 | -0.081 | 0.667 | 0.022 | -0.399
41 | GCTCAT | 0.361 | 0.815 | 0.733 | 0.367 | 0.316
42 | CTACCA | -0.152 | 0.037 | -0.529 | -0.25 | -0.588
43 | CCTATC | -0.33 | 0.17 | -0.304 | -0.314 | -0.517
44 | CGCGGA | -0.534 | -0.447 | -0.002 | -0.414 | -0.454
45 | ACGGAA | 0.093 | -1.31 | -0.49 | -0.15 | 0.205
46 | TCAGCC | 0.006 | 0.51 | 0.462 | -0.026 | -0.403
47 | GAGCTG | -1.55 | -0.112 | -0.837 | -1.41 | -1.26
48 | CGTTAA | -0.535 | -0.305 | -0.578 | -0.504 | -0.389
49 | AAACCT | -1.88 | -1.63 | -2.56 | -1.81 | -2.1
50 | TTCATT | 1.6 | 1.41 | 1.56 | 1.65 | 1.43
51 | TATTTC | 1.17 | 0.441 | 0.458 | 1.28 | 1.24
52 | TCCTCG | -0.433 | 0.081 | 0.083 | -0.187 | -0.515
53 | ATTCAA | 0.829 | 1.48 | 1.19 | 0.955 | 0.889
54 | CAGATT | 0.807 | 0.078 | 0.465 | 0.898 | 0.937
55 | GATTTC | 0.294 | 0.076 | -0.068 | 0.33 | 0.336
